Patent EP0293220B1, “Pharmacologically active 2-and 3-substituted (1', 5'-diaryl-3-pyrazolyl)-N-Hydroxypropanamides and method for synthesizing” (ORTHO PHARMACEUTICAL CORPORATION, priority 1987, dated 1988)
The name of at least one read-out is uncertain.

System: Polyarthritis
Assay: Polyarthritis induced by Mycobacterium butyricum in rats: inhibition of paw volume increase after oral dosing
Type: in vivo, Lewis strain laboratory rats
Conditions: percent inhibition of paw volume increase, five consecutive days
Description: Polyarthritis was induced in Lewis strain laboratory rats (weight = about 200 grams) by injection of a suspension of Mycobacterium butyricum in mineral oil into the subplantar tissue of the mammal's hind paws. On day 10 after the injection, the rats were assigned to groups, and paw volumes and body weights were recorded. Paw volumes of the contralateral, uninjected hind paw were determined by mercury plethylsmography. Per oral (p.o.) dosing began and continued for five consecutive days thereafter. On day 14 after the initial injection, approximately four hours after the final dose was administered, paw volumes and body weights were recorded and quantitated.
Anti-inflammatory activity of the N-hydroxypropanamide pyrazole compounds is expressed as the percent inhibition of paw volume increase.

SMILES	%INH. p.o. (mpk) (10 mpk) [% @ 10]	further results
COc1ccc(-n2nc(CC(C(=O)O)c3ccccc3OC)cc2-c2ccc(C)cc2)cc1 (stereo not shown) [Compound 23]	–	%INH. p.o. (mpk) (25 mpk): 23% @ 25
COc1ccc(-n2nc(C(C)CC(=O)N(C)O)cc2-c2ccc(Cl)cc2)cc1 (stereo not shown) [Compound 51, 3-[5-(4-Chlorophenyl)-1-(4-methoxyphenyl)-3-pyrazolyl]-3,N-dimethyl-N-hydroxypropanamide Hemihydrate]	–	%INH. p.o. (mpk) (8 mpk): 40% @ 8
COc1ccc(-n2nc([C@@H]3CCCC[C@@H]3C(=O)N(C)O)cc2-c2ccc(Cl)cc2)cc1 (relative stereo) [Compound 63, cis-2-[5-(4-Chlorophenyl)-1-(4-methoxyphenyl)-3-pyrazolyl]-1-(N-hydroxy-N-methyl)carboxamido-cyclohexane]	29	–
COc1ccc(-n2nc(C(CC(=O)N(C)O)c3ccc(-c4ccccc4)cc3)cc2-c2ccc(C)cc2)cc1 (stereo not shown) [Compound 161, 3-Biphenylyl-N-hydroxy-3-[1-(4-methoxyphenyl)-5-(4-methylphenyl)-3-pyrazolyl]-N-methylpropanamide hemihydrate]	10	–
COc1ccc(-n2nc(-c3ccccc3C(=O)N(C)O)cc2-c2ccc(Cl)cc2)cc1 [Compound 62, 2-[5-(4-Chlorophenyl)-1-(4-methoxyphenyl)pyrazol-3-yl]-N-hydroxy-N-methylbenzamide Hemihydrate]	–	%INH. p.o. (mpk) (15 mpk): 37% @ 15
COc1ccc(-n2nc(CC(C)(C)C(=O)N(C)O)cc2-c2ccc(Cl)cc2)cc1 [Compound 47, 3-[5-(4-Chlorophenyl)-1-(4-methoxyphenyl)-3-pyrazolyl]-N-hydroxy-2,2,N-trimethylpropanamide]	17	–
COc1ccc(-n2nc(CC3(C(=O)N(C)O)CCCCCC3)cc2-c2ccc(Cl)cc2)cc1 [Compound 42, 3-[5-(4-chlorophenyl)-1-(4-methoxyphenyl)-3-pyrazolyl]-N-hydroxy-2-spirocycloheptyl-N-methylpropanamide]	17	–
COc1ccc(-n2nc(CC(C(=O)O)c3ccc(Cl)cc3)cc2-c2ccc(Cl)cc2)cc1 (stereo not shown) [Compound 18, 3-[5-(4-Chlorophenyl)-1-(4-methoxyphenyl)-3-pyrazolyl]-2-(4-chlorophenyl) propanoic acid]	39	–
COc1ccc(-n2nc(CC(C(=O)N(C)O)c3ccc(Cl)cc3)cc2-c2ccc(Cl)cc2)cc1 (stereo not shown) [Compound 26, 3-[5-(4-Chlorophenyl)-1-(4-methoxyphenyl)-3-pyrazolyl]-2-(4-chlorophenyl)-N-hydroxy-N-methylpropanamide]	13	–
COc1ccc(-n2nc(-c3ccc(OC)c(CCC(=O)N(C)O)c3OC)cc2-c2ccc(Cl)cc2)cc1 [Compound 75, 3-[3-[5-(4-Chlorophenyl)-1-(4-methoxyphenyl)pyrazol-3-yl]-2,6-dimethoxyphenyl]-N-hydroxy-N-methylpropanamide]	–	%INH. p.o. (mpk) (15 mpk): 20% @ 15
COc1ccc(-n2nc(C(CC(=O)O)c3ccc(F)cc3)cc2-c2ccc(C)cc2)cc1 (stereo not shown) [Compound 151, 3-(4-Fluorophenyl)-3-[1-(4-methoxyphenyl)-5-(4-methylphenyl)-3-pyrazolyl] propanoic acid]	48	–
CCOC(=O)C(Cc1cc(-c2ccc(Cl)cc2)n(-c2ccc(OC)cc2)n1)c1ccccc1 (stereo not shown) [Compound 8]	61	–
COc1ccc(-n2nc(CC(C)C(=O)N(C)O)cc2-c2ccc(Cl)cc2)cc1 (stereo not shown) [Compound 52, 3-[5-(4-Chlorophenyl)-1-(4-methoxyphenyl)-3-pyrazolyl]-2,N-dimethyl-N-hydroxy propanamide Hemihydrate]	–	%INH. p.o. (mpk) (15 mpk): 45% @ 15
